Results on 25 compounds are retold here after the supplement of paper PMC4604168 (melanoma cell lines).

SMILES strings stand for the structures. The list shows a part of the results. Most values come without repeats; read them as rough.
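Further: cells treated in 1,536-well plates, then fixed and DAPI-stained, with nuclei counted from automated high-throughput microscope images.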

For the assay, the system named is SkMel2. In words: cell count relative to DMSO control; melanoma cells; higher = more viable cells. Particulars: library dose: standard library concentration; 72 h.
In turn, `N#CC[C@H](C1CCCC1)n1cc(-c2ncnc3[nH]ccc23)cn1` [ruxolitinib] + O=C(/C=C/c1cccnc1)NCCCCC1CCN(C(=O)c2ccccc2)CC1 [FK866] (first compound 5 µM, partner dose 0.05 µM) returned a cell count of 7.35%. As to `CC[C@]1(O)C[C@H]2CN(CCc3c([nH]c4ccccc34)[C@@](C(=O)OC)(c3cc4c(cc3OC)N(C=O)[C@H]3[C@@](O)(C(=O)OC)[C@H](OC(C)=O)[C@]5(CC)C=CCN6CC[C@]43[C@@H]65)C2)C1` [vincristine] + COc1cc(Nc2ncc(F)c(Nc3ccc4c(n3)NC(=O)C(C)(C)O4)n2)cc(OC)c1OC [Tamatinib] (first compound 0.0005 µM, partner dose 2 µM), the cell count stood at 11.1%. With `N#CC[C@H](C1CCCC1)n1cc(-c2ncnc3[nH]ccc23)cn1` [ruxolitinib] + CC1(C)NC(=O)N(c2ccc([N+](=O)[O-])c(C(F)(F)F)c2)C1=O [nilutamide] (first compound 5 µM, partner dose 5 µM) the figure was 87.5%. With `CC[C@]1(O)C[C@H]2CN(CCc3c([nH]c4ccccc34)[C@@](C(=O)OC)(c3cc4c(cc3OC)N(C=O)[C@H]3[C@@](O)(C(=O)OC)[C@H](OC(C)=O)[C@]5(CC)C=CCN6CC[C@]43[C@@H]65)C2)C1` [vincristine] + CC1(C)NC(=O)N(c2ccc([N+](=O)[O-])c(C(F)(F)F)c2)C1=O [nilutamide] (first compound 0.0005 µM, partner dose 5 µM) the figure was 92.9%. As for `N#CC[C@H](C1CCCC1)n1cc(-c2ncnc3[nH]ccc23)cn1` [ruxolitinib] + CC(C)C[C@H](NC(=O)[C@H](Cc1ccccc1)NC(=O)c1cnccn1)B(O)O [Bortezomib] (first compound 5 µM, partner dose 0.005 µM), the cell count is 47.9%. With `CC[C@]1(O)C[C@H]2CN(CCc3c([nH]c4ccccc34)[C@@](C(=O)OC)(c3cc4c(cc3OC)N(C=O)[C@H]3[C@@](O)(C(=O)OC)[C@H](OC(C)=O)[C@]5(CC)C=CCN6CC[C@]43[C@@H]65)C2)C1` [vincristine] + COC(=O)c1sccc1S(=O)(=O)Nc1ccc(Nc2ccccc2)cc1OC [GSK0660] (first compound 0.0005 µM, partner dose 5 µM) the figure was 13.9%; with `N#CC[C@H](C1CCCC1)n1cc(-c2ncnc3[nH]ccc23)cn1` [ruxolitinib] + CS(=O)(=O)CCNCc1ccc(-c2ccc3ncnc(Nc4ccc(OCc5cccc(F)c5)c(Cl)c4)c3c2)o1 [lapatinib] (first compound 5 µM, partner dose 4 µM), 96.5%.

`Cc1cc(Nc2cc(N3CCN(C)CC3)nc(Sc3ccc(NC(=O)C4CC4)cc3)n2)n[nH]1` [Tozasertib] + C[C@]1(c2nc3c(C(N)=O)cccc3[nH]2)CCCN1 [Veliparib] (first compound 0.03 µM, partner dose 7 µM) came in with a cell count of 78.8%. With `N#CC[C@H](C1CCCC1)n1cc(-c2ncnc3[nH]ccc23)cn1` [ruxolitinib] + Cn1cncc1[C@@](N)(c1ccc(Cl)cc1)c1ccc2c(c1)c(-c1cccc(Cl)c1)cc(=O)n2C [tipifarnib] (first compound 5 µM, partner dose 0.05 µM) the figure was 88.6%; with `CC[C@]1(O)C[C@H]2CN(CCc3c([nH]c4ccccc34)[C@@](C(=O)OC)(c3cc4c(cc3OC)N(C=O)[C@H]3[C@@](O)(C(=O)OC)[C@H](OC(C)=O)[C@]5(CC)C=CCN6CC[C@]43[C@@H]65)C2)C1` [vincristine] + Cc1cc(Nc2cc(N3CCN(C)CC3)nc(/C=C/c3ccccc3)n2)n[nH]1 [ENMD2076] (first compound 0.0005 µM, partner dose 0.2 µM), 66.4%. `CC[C@]1(O)C[C@H]2CN(CCc3c([nH]c4ccccc34)[C@@](C(=O)OC)(c3cc4c(cc3OC)N(C=O)[C@H]3[C@@](O)(C(=O)OC)[C@H](OC(C)=O)[C@]5(CC)C=CCN6CC[C@]43[C@@H]65)C2)C1` [vincristine] + CN(NC(=O)CC(=O)NN(C)C(=S)c1ccccc1)C(=S)c1ccccc1 [STA4783] (first compound 0.0005 µM, partner dose 0.03 µM) showed a cell count of 53.5%. For the compound `CC[C@]1(O)C[C@H]2CN(CCc3c([nH]c4ccccc34)[C@@](C(=O)OC)(c3cc4c(cc3OC)N(C=O)[C@H]3[C@@](O)(C(=O)OC)[C@H](OC(C)=O)[C@]5(CC)C=CCN6CC[C@]43[C@@H]65)C2)C1` [vincristine] + CO[C@@H]1[C@H](N(C)C(=O)c2ccccc2)C[C@H]2O[C@]1(C)n1c3ccccc3c3c4c(c5c6ccccc6n2c5c31)C(=O)NC4 [Midostaurin] (first compound 0.0005 µM, partner dose 0.4 µM), the cell count was 70.1%. With `N#CC[C@H](C1CCCC1)n1cc(-c2ncnc3[nH]ccc23)cn1` [ruxolitinib] + CN1CCN(c2ccc3nc(-c4c(N)c5c(F)cccc5[nH]c4=O)[nH]c3c2)CC1 [Dovitinib] (first compound 5 µM, partner dose 0.5 µM) the figure was 83.5%; with `N#CC[C@H](C1CCCC1)n1cc(-c2ncnc3[nH]ccc23)cn1` [ruxolitinib] + CN(C)S(=O)(=O)c1ccc2c(c1)/C(=C/c1cc3c([nH]1)CCCC3)C(=O)N2 [SU6656] (first compound 5 µM, partner dose 2 µM), 85.2%. With `Cc1cc(Nc2cc(N3CCN(C)CC3)nc(Sc3ccc(NC(=O)C4CC4)cc3)n2)n[nH]1` [Tozasertib] + O=C(Nc1cccc(Cl)c1)Nc1ncc(CCNc2ncnc3ccsc23)s1 [SNS314] (first compound 0.03 µM, partner dose 0.004 µM) the figure was 47%; with `CC[C@]1(O)C[C@H]2CN(CCc3c([nH]c4ccccc34)[C@@](C(=O)OC)(c3cc4c(cc3OC)N(C=O)[C@H]3[C@@](O)(C(=O)OC)[C@H](OC(C)=O)[C@]5(CC)C=CCN6CC[C@]43[C@@H]65)C2)C1` [vincristine] + COc1ccc(Cl)c(Nc2nc3ccccc3nc2NS(=O)(=O)c2cccc(NC(=O)C(C)(C)N)c2)c1 [XL147] (first compound 0.0005 µM, partner dose 4 µM), 68.1%; with `CC[C@]1(O)C[C@H]2CN(CCc3c([nH]c4ccccc34)[C@@](C(=O)OC)(c3cc4c(cc3OC)N(C=O)[C@H]3[C@@](O)(C(=O)OC)[C@H](OC(C)=O)[C@]5(CC)C=CCN6CC[C@]43[C@@H]65)C2)C1` [vincristine] + CO[C@H]1C[C@@H]2CC[C@@H](C)[C@@](O)(O2)C(=O)C(=O)N2CCCC[C@H]2C(=O)O[C@H]([C@H](C)C[C@@H]2CC[C@@H](OCCO)[C@H](OC)C2)CC(=O)[C@H](C)/C=C(\C)[C@@H](O)[C@@H](OC)C(=O)[C@H](C)C[C@H](C)/C=C/C=C/C=C/1C [everolimus] (first compound 0.0005 µM, partner dose 0.1 µM), 66.3%. With `Cc1cc(Nc2cc(N3CCN(C)CC3)nc(Sc3ccc(NC(=O)C4CC4)cc3)n2)n[nH]1` [Tozasertib] + C[C@@H]1CCN(C(=O)CC#N)C[C@@H]1N(C)c1ncnc2[nH]ccc12 [CP690550] (first compound 0.03 µM, partner dose 5 µM) the figure was 84.2%; with `N#CC[C@H](C1CCCC1)n1cc(-c2ncnc3[nH]ccc23)cn1` [ruxolitinib] + O=c1[nH]nc(Sc2ncc([N+](=O)[O-])s2)n1-c1ccc2c(c1)OCCO2 [BI78D3] (first compound 5 µM, partner dose 1 µM), 112%. The compound `N#CC[C@H](C1CCCC1)n1cc(-c2ncnc3[nH]ccc23)cn1` [ruxolitinib] + OCCn1cc(-c2cnc3nnn(Cc4ccc5ncccc5c4)c3n2)cn1 [PF04217903] (first compound 5 µM, partner dose 5 µM) showed a cell count of 94.3%. With `CC[C@]1(O)C[C@H]2CN(CCc3c([nH]c4ccccc34)[C@@](C(=O)OC)(c3cc4c(cc3OC)N(C=O)[C@H]3[C@@](O)(C(=O)OC)[C@H](OC(C)=O)[C@]5(CC)C=CCN6CC[C@]43[C@@H]65)C2)C1` [vincristine] + O=C(CCCCCCC(=O)Nc1ccccc1)NO [vorinostat] (first compound 0.0005 µM, partner dose 0.4 µM) the figure was 71.5%; with `N#CC[C@H](C1CCCC1)n1cc(-c2ncnc3[nH]ccc23)cn1` [ruxolitinib] + O=C1NC(=O)/C(=C/c2ccc(-c3ccc(F)cc3O)o2)S1 [AS252424] (first compound 5 µM, partner dose 5 µM), 100%; with `CC[C@]1(O)C[C@H]2CN(CCc3c([nH]c4ccccc34)[C@@](C(=O)OC)(c3cc4c(cc3OC)N(C=O)[C@H]3[C@@](O)(C(=O)OC)[C@H](OC(C)=O)[C@]5(CC)C=CCN6CC[C@]43[C@@H]65)C2)C1` [vincristine] + O=C1NC(=O)/C(=C/c2ccc(-c3ccc(F)cc3O)o2)S1 [AS252424] (first compound 0.0005 µM, partner dose 5 µM), 36.9%.

`N#CC[C@H](C1CCCC1)n1cc(-c2ncnc3[nH]ccc23)cn1` [ruxolitinib] + C[C@@H](Oc1cc(-c2cnn(C3CCNCC3)c2)cnc1N)c1c(Cl)ccc(F)c1Cl [Crizotinib] (first compound 5 µM, partner dose 1 µM) yielded a cell count of 90%. For the compound `Cc1cc(Nc2cc(N3CCN(C)CC3)nc(Sc3ccc(NC(=O)C4CC4)cc3)n2)n[nH]1` [Tozasertib] + NCC(=O)Nc1ccc(-n2nc(C(F)(F)F)cc2-c2ccc3c(ccc4ccccc43)c2)cc1 [OSU03012] (first compound 0.03 µM, partner dose 5 µM), the cell count was 59.4%.
